Assay results reported in PubChem BioAssay AID1460 (National Center for Advancing Translational Sciences (NCATS), 2008).
About 5,800 (2.1%) of roughly 270,000 compounds were called active. The shares of active, inactive and inconclusive entries below differ from those in the screen. The call rests on the fitted dose curve; in most records, active means well fitted inhibition curve with a large enough effect; inconclusive means small, poorly fitted or top-dose-only effect; inactive means flat fitted curve, though single readings scatter. Potencies of inconclusive entries are doubtful fits and often do not repeat.

Target: Microtubule-associated protein tau (Homo sapiens) (UniProt P10636)
Experiment: qHTS for Inhibitors of Tau Fibril Formation, Thioflavin T Binding; further: nearly all actives have a fitted effect of over 55% in size
Details: recombinant tau K18 P301L, heparin-induced fibrillization, ThT fluorescence; series mostly up to 57.4 µM
Procedure, shortened: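 Using a mix of unlabeled (15 uM) and Alexa 594-labeled (0.24 uM) tau K18 P301L, heparin-triggered fibrillization over 6 hr at 37 C was scored by ThT fluorescence.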
Potency means the concentration at half of the fitted maximal effect; tags describe the fitted curve by direction and shape.

Sequence of UniProt P10636 (P10636 whole entry, looked up): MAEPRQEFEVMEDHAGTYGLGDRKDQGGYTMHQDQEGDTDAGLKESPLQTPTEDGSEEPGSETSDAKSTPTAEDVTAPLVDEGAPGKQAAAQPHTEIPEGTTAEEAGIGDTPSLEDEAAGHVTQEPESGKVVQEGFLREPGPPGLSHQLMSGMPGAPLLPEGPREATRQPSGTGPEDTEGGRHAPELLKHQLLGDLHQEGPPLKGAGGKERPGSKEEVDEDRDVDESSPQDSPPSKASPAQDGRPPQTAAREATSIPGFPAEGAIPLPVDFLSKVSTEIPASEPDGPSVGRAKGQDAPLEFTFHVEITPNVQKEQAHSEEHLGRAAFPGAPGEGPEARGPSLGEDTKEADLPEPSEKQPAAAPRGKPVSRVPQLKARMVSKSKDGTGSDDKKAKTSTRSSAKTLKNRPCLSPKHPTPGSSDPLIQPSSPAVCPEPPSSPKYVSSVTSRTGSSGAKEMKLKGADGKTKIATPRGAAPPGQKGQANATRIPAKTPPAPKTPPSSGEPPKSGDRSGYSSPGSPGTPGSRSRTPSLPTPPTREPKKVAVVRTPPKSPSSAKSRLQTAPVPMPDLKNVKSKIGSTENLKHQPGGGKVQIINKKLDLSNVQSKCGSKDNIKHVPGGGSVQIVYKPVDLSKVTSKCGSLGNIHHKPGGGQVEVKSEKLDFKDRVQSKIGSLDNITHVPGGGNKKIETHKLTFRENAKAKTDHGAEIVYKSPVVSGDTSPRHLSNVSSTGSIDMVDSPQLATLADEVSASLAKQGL

Row | SMILES | Potency
1 | CCCc1[nH]nc2c1C(c1ccc(Br)s1)C(C#N)=C(N)O2 (configuration not stated) | inconclusive: 17.8 µM [inhibitor, partial curve]
2 | CC(C)(C)C1CCC(=NNc2ncc(C(F)(F)F)cc2Cl)CC1 (configuration not stated) | inactive
3 | O=C(CSc1nc2ncc(Cl)cc2[nH]1)NCC(=O)Nc1ccc(F)c(F)c1F | inactive
4 | CC1=C(C(=O)OC(C)C)C2(O)C(=O)c3ccccc3C2(O)N1 (configuration not stated) | active: 7.08 µM
5 | CCOC(=O)c1c(-c2ccccc2)nnn1-c1nc(OCC)nc(N2CCCCC2)n1 | inconclusive: 20 µM [inhibitor, partial curve]
6 | Cc1nn(-c2ccc(N3CCCC3)nn2)c(C)c1CCC(=O)N1CCN(c2ccccc2F)CC1 | inactive
7 | CCCCC1=CC2=CC(=O)C(C)(OC(=O)CC)C(=O)C2=CN1CCc1c[nH]c2ccccc12 (configuration not stated) | inconclusive: 17.8 µM [inhibitor, single point]
8 | Nc1cc(Cl)ccc1Oc1ccc(Cl)cc1 | inactive
9 | COc1ccccc1NC(=O)c1ccc2c(c1)nnn2C | inconclusive: 8.91 µM [inhibitor, partial curve]
10 | Cc1ccc(-n2cc(CN(C)Cc3nccn3C)c(-c3cccc(C)c3)n2)cc1 | inconclusive: 39.8 µM [inhibitor, single point]
11 | Nc1c2c(nc3sc4c(c13)CCCCC4)CCCCC2 | inconclusive: 15.8 µM [inhibitor, partial curve]
12 | CC(=O)N1CCN(c2ccc(NCc3ccc(C)cc3)cc2)CC1 | inconclusive: 14.1 µM [inhibitor, partial curve]
13 | CCn1c(CSc2nc3ccccc3s2)nnc1SCC(=O)c1ccc(O)cc1O | inactive
14 | CCOC(=O)C1CCN(C(C(=O)NC2CCCCC2)c2ccc(OC)cc2)CC1 (configuration not stated) | inactive
15 | COc1ccc(C2C(C(C)=O)=C(C)N=c3s/c(=C\c4ccco4)c(=O)n32)c(OC)c1 (configuration not stated) | active: 12.6 µM
16 | Cc1cn2c(=O)cc(COc3ccc(NC(=O)c4ccc(C(C)(C)C)cc4)cc3)nc2s1 | inconclusive: 0.501 µM [inhibitor, full curve, poor fit]
17 | CCN(C(=O)c1sc2nc3n(c(=O)c2c1C)CCCC3)c1ccccc1F | inconclusive: 31.6 µM [inhibitor, single point]
18 | C/C(CCC(C)C)=N\NS(=O)(=O)c1ccc(C)c([N+](=O)[O-])c1 | inactive
19 | Cn1cc2ccc(N)cc2n1 | inconclusive: 15.8 µM [inhibitor, partial curve]
20 | Cc1c(N=C2N=C(NC(=O)c3cccs3)c3ccccc32)c(=O)n(-c2ccccc2)n1C | inconclusive: 6.31 µM [inhibitor, partial curve]
21 | Cc1cc(O)c(C(c2ccccc2)N2CCC(C)CC2)c(=O)n1Cc1ccco1 (configuration not stated) | inconclusive: 25.1 µM [inhibitor, partial curve]
22 | O=C(O)CCN1C(=O)/C(=C/c2cn(-c3ccccc3)nc2-c2cccs2)SC1=S | inactive
23 | O=C(O)c1ccc(CSc2nnc(SCc3ccccc3)s2)cc1 | inactive
24 | O=C(Nc1ccccc1)c1ccc(=O)n(Cc2ccc(F)c(F)c2)c1 | inactive

Row | SMILES | Potency
25 | CCOC(=O)C1CCN(C(=O)CSc2ccc(Br)cc2)CC1 | inactive
26 | Cc1ccc(Nc2ccc(N3CCN(C(=O)c4cccc([N+](=O)[O-])c4)CC3)nn2)cc1 | inconclusive: 10 µM [inhibitor, partial curve]
27 | Fc1ccccc1C(NCCc1ccc(Cl)cc1)c1nnc(-c2ccccc2)o1 (configuration not stated) | inconclusive: 0.794 µM [inhibitor, partial curve]
28 | CCCOC(=O)c1ccc(Oc2cn[nH]c2-c2ccc(O)cc2O)cc1 | inconclusive: 20 µM [inhibitor, single point]
29 | CCCC12CN3CC(CCC)(CN(C1)C3c1ccc(OCc3ccccc3)cc1)C2=O (configuration not stated) | inactive
30 | COc1cc2c(cc1OC)CN(C(=O)/C=C/c1cccs1)CC2 | inconclusive: 28.2 µM [inhibitor, partial curve, poor fit]
31 | CCC(c1nnnn1Cc1ccco1)N(CCc1ccccc1)Cc1cc2cccc(C)c2[nH]c1=O (configuration not stated) | inconclusive: 20 µM [inhibitor, single point]
32 | Cc1ccc(C)c(NC(=O)c2cnn(-c3ccc(F)cc3F)c2C2CCNCC2)c1 | inactive
33 | COc1ccccc1NC(=O)C1=C(C)NC(SCC(=O)c2ccccc2)=C(C#N)C1c1ccco1 (configuration not stated) | inconclusive: 7.94 µM [inhibitor, full curve]
34 | CN/C=C1\C(=O)C(C)(C)Oc2ccc3ccc(=O)oc3c21 | inactive
35 | O=C(NCCNc1ccc([N+](=O)[O-])cc1)c1ccccc1Br | inconclusive: 15.8 µM [inhibitor, partial curve]
36 | O=C(COc1cccnc1[N+](=O)[O-])N1N=C(c2ccc(Cl)cc2)CC1c1ccco1 (configuration not stated) | inconclusive: 44.7 µM [inhibitor, single point]
37 | Cc1cc(SCC(=O)OCC(=O)N2CCN(C(=O)c3ccco3)CC2)c(C)cc1Br | inconclusive: 15.8 µM [inhibitor, single point]
38 | CCOc1ccc(N2Cc3ncccc3C2=O)cc1 | inconclusive: 22.4 µM [inhibitor, partial curve]
39 | O=C(CCCn1c(=S)[nH]c2cc3c(cc2c1=O)OCO3)NCc1ccco1 | inactive
40 | Cc1ccc(C2CC(=O)n3nc(-c4ccc(F)cc4)nc3S2)cc1 (configuration not stated) | inconclusive: 20 µM [inhibitor, single point]
41 | CNC(=O)/C(C#N)=C/c1ccc(-c2ccccc2[N+](=O)[O-])o1 | inconclusive: 3.16 µM [inhibitor, partial curve]
42 | Cc1cc(Nc2ccccc2)nn1C(=O)c1ccccc1 | inactive
43 | COc1ccccc1C(=O)Nc1cc(Cl)ccc1O | inactive
44 | Cc1cccc(NC(=S)NNC(=O)CCn2nc(C)c([N+](=O)[O-])c2C)c1 | inactive
45 | O=C(CSc1nc(C2CCCCC2)nc2ccccc12)N1CCCC1 | inactive
46 | CCC1CN(C(=O)N2CCC(C(=O)NCCCc3ccccc3)CC2)c2cc(C)ccc2O1 (configuration not stated) | inactive
47 | Cc1ccccc1NC(=O)Cn1c(=O)n(CCC(=O)N2CCc3ccccc3C2)c(=O)c2ccccc21 | inactive
48 | CCOC(=O)c1ccc(NC(=O)CCc2nc(-c3cccc(C)c3)no2)cc1 | inconclusive: 3.16 µM [inhibitor, full curve]

Row | SMILES | Potency
49 | COc1ccc(/C=C/C(=O)c2ccc(OC)cc2OC)c(OC)c1 | inconclusive: 17.8 µM [inhibitor, single point]
50 | O=C(CNC(c1ccccc1)c1ccccc1)Nc1cc([N+](=O)[O-])ccc1Cl | inactive
51 | O=C(COc1ccc(F)cc1)Nc1ccc(OCc2cc(=O)n3ccsc3n2)cc1 | inconclusive: 0.891 µM [inhibitor, full curve]
52 | CCC(C)(C)n1nnnc1CN(Cc1ccc(Cl)cc1)Cc1ccco1 | inconclusive: 22.4 µM [inhibitor, partial curve]
53 | O=[N+]([O-])c1ccc(O)c(-c2nc(-c3ccccc3)c(-c3cccs3)[nH]2)c1 | active: 20 µM
54 | CN(Cc1ccccc1)C(=O)CSc1c2c(nc3ccc(Cl)cc13)CCCC2 | inconclusive: 10 µM [inhibitor, partial curve]
55 | Cc1cc(O)c(C=O)c2c1C(=O)Oc1c(CO)c(O)c3c(c1O2)C(O)OC3=O (configuration not stated) | inconclusive: 22.4 µM [inhibitor, single point]
56 | COc1ccccc1/C=C/C=N/n1c(-c2ccc(C)cc2)n[nH]c1=S | inactive
57 | CCN(CC)C(=O)COc1ccc(/C(C)=N/Nc2ncc(Cl)cc2Cl)cc1 | inconclusive: 8.91 µM [inhibitor, partial curve]
58 | CC1CN(C(=O)c2nn(C)cc2[N+](=O)[O-])CC(C)O1 (configuration not stated) | inactive
59 | COc1ccc(/C=C2\SC(=N)N(c3ccc(F)cc3)C2=O)cc1OC | inconclusive: 7.08 µM [inhibitor, partial curve]
60 | Cc1cccc(OCC(=O)N/N=C/c2ccc3c(c2)OCO3)c1 | inconclusive: 1.41 µM [inhibitor, full curve]
61 | Cc1ccc(C(=O)CSc2nnc(-c3ccccc3N)n2C)cc1C | inconclusive: 10 µM [inhibitor, partial curve]
62 | O=C1OC(c2ccccc2)=N/C1=C\C=C\c1ccccc1[N+](=O)[O-] | inconclusive: 28.2 µM [inhibitor, partial curve]
63 | CSC(=S)N/N=C/c1ccc(N(C)C)cc1 | inconclusive: 3.98 µM [inhibitor, full curve]
64 | CN1CCc2c(n(CC(O)CN3C(=O)c4ccccc4S3(=O)=O)c3ccccc23)C1=O (configuration not stated) | inactive
65 | COCCN1C(=O)C(=O)/C(=C(/O)c2ccc(C)cc2)C1c1ccccn1 (configuration not stated) | inactive
66 | COc1cccc(/C=N\NC(=O)C2=NNC(=O)C2C)c1O (configuration not stated) | inconclusive: 15.8 µM [inhibitor, partial curve]
67 | CCCCCn1c(CN2CCN(c3cccc(Cl)c3)CC2)nc2c1c(=O)n(C)c(=O)n2C | inconclusive: 12.6 µM [inhibitor, partial curve]
68 | CCOC(=O)c1cnc(-n2nc(C)cc2C)nc1NCc1ccc2c(c1)OCO2 | inconclusive: 10 µM [inhibitor, partial curve, poor fit]
69 | COc1ccc(CCN(Cc2nc3ccccc3c(=O)[nH]2)C(=O)c2ccco2)cc1 | inactive
70 | O=C(O)c1ccc(COc2ccc(/C=N/NC(=O)c3cccs3)cc2)cc1 | inconclusive: 0.355 µM [inhibitor, full curve]
71 | CCOC(=O)c1c(C)[nH]c(N=Nc2cccc(C)c2)c1C | active: 10 µM
72 | Nc1ccc(C(=O)Nc2ccc(NC(=O)c3ccco3)c(O)c2)cc1 | inconclusive: 14.1 µM [inhibitor, partial curve]
